Molecules are shown by their SMILES. Screen size: about 310,000 compounds; about 2,200 (0.71%) showed an effect of 50% or more. The effect is printed as a negative number. Some of the results follow.

For this assay, the target named is human ether-à-go-go-related gene (hERG) potassium channel (human, UniProt Q12809). Briefly: primary screen, population patch clamp on CHO cells stably expressing hERG.
Chain of human ether-à-go-go-related gene (hERG) potassium channel (Q12809 whole entry, looked up): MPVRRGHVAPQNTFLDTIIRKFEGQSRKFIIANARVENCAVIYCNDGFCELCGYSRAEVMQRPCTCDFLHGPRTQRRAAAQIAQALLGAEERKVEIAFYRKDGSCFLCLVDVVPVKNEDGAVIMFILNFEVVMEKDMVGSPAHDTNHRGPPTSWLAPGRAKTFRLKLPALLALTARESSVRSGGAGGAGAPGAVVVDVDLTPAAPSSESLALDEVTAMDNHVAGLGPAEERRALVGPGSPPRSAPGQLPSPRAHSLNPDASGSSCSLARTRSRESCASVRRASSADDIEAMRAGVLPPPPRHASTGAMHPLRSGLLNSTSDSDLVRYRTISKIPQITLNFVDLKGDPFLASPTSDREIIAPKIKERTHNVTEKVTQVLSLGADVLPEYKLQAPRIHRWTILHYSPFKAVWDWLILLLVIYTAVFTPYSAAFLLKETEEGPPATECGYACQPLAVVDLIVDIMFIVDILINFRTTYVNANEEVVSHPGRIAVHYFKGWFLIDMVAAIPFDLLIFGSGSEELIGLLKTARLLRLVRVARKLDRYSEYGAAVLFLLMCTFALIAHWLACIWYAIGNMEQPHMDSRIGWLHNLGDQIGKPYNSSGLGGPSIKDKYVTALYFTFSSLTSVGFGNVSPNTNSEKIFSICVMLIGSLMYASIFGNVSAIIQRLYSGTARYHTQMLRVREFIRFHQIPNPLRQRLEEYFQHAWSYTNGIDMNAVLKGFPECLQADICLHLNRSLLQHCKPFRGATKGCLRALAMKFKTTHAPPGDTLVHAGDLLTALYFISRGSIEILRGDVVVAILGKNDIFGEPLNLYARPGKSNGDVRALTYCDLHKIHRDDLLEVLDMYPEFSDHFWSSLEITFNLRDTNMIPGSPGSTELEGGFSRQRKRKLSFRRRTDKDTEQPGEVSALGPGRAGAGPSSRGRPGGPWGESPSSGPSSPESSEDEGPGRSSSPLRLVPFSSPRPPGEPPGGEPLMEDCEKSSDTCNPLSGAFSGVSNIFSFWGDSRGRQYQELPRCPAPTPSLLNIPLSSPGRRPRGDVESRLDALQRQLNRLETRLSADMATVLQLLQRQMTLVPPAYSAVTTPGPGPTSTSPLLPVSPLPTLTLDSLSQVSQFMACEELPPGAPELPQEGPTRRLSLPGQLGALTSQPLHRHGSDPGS
Take `CCN1CC(CNCc2cn(-c3ccc(OC)cc3)nc2-c2ccccc2Cl)CC1=O` (stereo not shown): the “hERG current change (%, negative = inhibition) at 1uM” value worked out at 7.7%.

Regarding `Cc1cc(NC(=O)CSc2ccc3nnc(-c4ccc(F)cc4)n3n2)no1`, the “hERG current change (%, negative = inhibition) at 1uM” value was determined as 3.44%. With `Cc1sc2ncnc(OCC(=O)NC(C)C)c2c1C`, the “hERG current change (%, negative = inhibition) at 1uM” value is 5.16%. The figure for `CC(Oc1ccccc1)C(=O)Nc1ccccc1O` (stereo not shown) is 16.9%. Regarding `CCCn1c(SCC(=O)NC(C)C)nc2sc3c(c2c1=O)CCC3`, the “hERG current change (%, negative = inhibition) at 1uM” value turned out to be 14.8%. The figure for `Cn1c(SCC(=O)N2CCN(c3ccccc3)CC2)nnc1-c1ccccc1` is 2.85%; for `CC(C)c1ccc(OC(=O)c2cccc(S(=O)(=O)N3CCN(C)CC3)c2)cc1` it is 15.6%. As for `O=C(CN1CCC(n2cnc3cc(F)ccc32)CC1)Nc1ccccc1Br`, the “hERG current change (%, negative = inhibition) at 1uM” value is -23.5%.

Regarding `Cc1nc2cc(Cl)c(Cl)cc2n1CCCO`, the “hERG current change (%, negative = inhibition) at 1uM” value is listed as 4.38%. The figure for `CSc1cccc(N2CC(C(=O)Nc3ccccc3N3CCCC3)CC2=O)c1` (stereo not shown) is 5.97%; for `Cc1ccc(C)c(S(=O)(=O)N=Nc2c(O)[nH]c3ccccc23)c1` it is 29%. For the molecule `COC(=O)c1ccc(N2CCOCC2)c(NC(=O)Nc2cccc(OC)c2)c1`, the “hERG current change (%, negative = inhibition) at 1uM” value turned out to be 9.75%.

In the case of `COc1ccc(CN2CN(c3ccc(Cl)cc3)C(=O)N(n3cnnc3)C2)cc1`, the “hERG current change (%, negative = inhibition) at 1uM” value is on record as -5.38%. To `O=S(=O)(/C=C/c1ccccc1)Nc1ccc(N2CCOCC2)cc1` belongs 3.99%; to `O=C(/C=C(\O)c1ccccc1)C(=O)NNC(=O)c1ccccc1[N+](=O)[O-]`, 17.1%; to `N#CC(C#N)=NNc1ccc([N+](=O)[O-])cc1`, 8.11%. As for `Cc1ccc([N+](=O)[O-])cc1/C=N/Nc1nnnn1-c1ccccc1`, the “hERG current change (%, negative = inhibition) at 1uM” value is -5.7%. `COc1ccc(CC(=O)Nc2nc3ccccc3[nH]2)cc1`: the “hERG current change (%, negative = inhibition) at 1uM” value is recorded as 10.1%.

For `C/C(CC(=O)Nc1ccc([N+](=O)[O-])cc1)=N\NC(=O)c1ccccc1[N+](=O)[O-]`, the “hERG current change (%, negative = inhibition) at 1uM” value was found to be 10.2%. To `CC1CN(C(=O)CN2C(=O)NC3(CCCCCCC3)C2=O)CC(C)O1` (stereo not shown) belongs 12.4%; to `CC(=O)Nc1sc(C)c(C)c1C(=O)Nc1ccc(C)cc1`, 7.71%.

For `Cc1ccc(N(Cc2ccco2)C(=O)c2ccc(N3CCCCC3)c([N+](=O)[O-])c2)cc1`, the “hERG current change (%, negative = inhibition) at 1uM” value is given as 13.7%. To `Cl.NCCc1cnc[nH]1` belongs 15%; to `O=C1OCCC1Sc1nnc(-c2ccccc2Cl)n1Cc1ccccc1` (stereo not shown), 12.1%; to `CCOC(=O)c1sc(NC(=O)c2ccoc2C)c(C(N)=O)c1C`, 5.06%. Take `CCCCc1ccc(NC(=O)COCC)cc1`: the “hERG current change (%, negative = inhibition) at 1uM” value stood at 4.99%. The figure for `CC(C)C(=O)Nc1nnc(S(=O)(=O)N(C)c2ccc(Cl)cc2)s1` is 11.1%; for `CC1Cc2cc(/C(O)=C3/C(=O)C(=O)N(CC4CCCO4)C3c3ccco3)ccc2O1` (stereo not shown) it is 14.5%; for `Cc1cc(C)n(CC(O)COc2ccccc2[N+](=O)[O-])n1` (stereo not shown) it is 13.1%. Consider `COC(=O)c1cc(Oc2ccc(S(=O)(=O)N3CCOCC3)cc2[N+](=O)[O-])cc(C(=O)OC)c1`, for which the “hERG current change (%, negative = inhibition) at 1uM” value is recorded as 12.9%. As for `CC1(C)CC(=O)C(Sc2ccc(Br)cc2)=C(O)C1`, the “hERG current change (%, negative = inhibition) at 1uM” value turned out to be 11.9%. To `Cc1c(Cl)cccc1NC(=S)NC1CCN(C(C)C)CC1` belongs 12.4%; to `Cc1ccc(C)c(N2CCN(CCCNC(=O)Cn3cccc3C(=O)c3ccccc3C)CC2)c1`, -22.1%; to `O=C(O)Cc1ccc(NC(=S)Nc2ccc(Br)cc2Cl)cc1`, 14.3%. In the case of `Cc1onc(-c2ccccc2)c1C(=O)Oc1ccccc1`, the “hERG current change (%, negative = inhibition) at 1uM” value worked out at 7.7%. With `CC(Sc1ccccc1)C(=O)Nc1ccc(S(=O)(=O)N2CCOCC2)cc1` (stereo not shown), the “hERG current change (%, negative = inhibition) at 1uM” value is listed as 7.46%.

Take `Cc1cc(C)cc(N2C(=O)CC(N3CCOCC3)C2=O)c1` (stereo not shown): the “hERG current change (%, negative = inhibition) at 1uM” value is on record as 10.4%. The figure for `CCc1c(C)sc(NC(=O)Cc2ccccc2OC)c1C(=O)N1CCOCC1` is 7.77%; for `CCOC(=O)C1CCCN(C(=O)/C=C/c2ccccc2[N+](=O)[O-])C1` (stereo not shown) it is 10.1%.

With `Nc1c(C(=O)NCc2ccc3c(c2)OCO3)nnn1Cc1cccc(F)c1`, the “hERG current change (%, negative = inhibition) at 1uM” value is 10.6%. To `O=c1cc(-c2ccc(O)c(O)c2)oc2c(C3O[C@H](CO)[C@@H](O)[C@H](O)[C@H]3O)c(O)cc(O)c12` (stereo partly shown) belongs -8.83%.

As for `O=S(=O)(c1cc(F)ccc1F)N1CCN(c2ccccn2)CC1`, the “hERG current change (%, negative = inhibition) at 1uM” value is given as 10.9%. To `Cc1ccc(NC(=O)CCC2CC(C)(C)OC2=O)cc1` (stereo not shown) belongs 14.9%. The figure for `CN(Cc1ccccc1)C(=S)NC(=O)c1ccc(-c2ccccc2)cc1` is 12.5%; for `Nc1nc(SCC(=O)N2CCN(c3ccccc3)CC2)n[nH]1` it is 7.53%; for `O=C(C1CCN(S(=O)(=O)c2ccccc2)CC1)N1CCOCC1` it is 9.57%. For `Fc1ccc(NC(=S)NCc2cccnc2)cc1`, the “hERG current change (%, negative = inhibition) at 1uM” value came out at 4.79%. Take `COc1ccc(OC)c(NC(=O)c2ccc(NS(C)(=O)=O)cc2)c1`: the “hERG current change (%, negative = inhibition) at 1uM” value came out at 7.55%. To `COc1ccc(Cl)cc1NC(=S)N1CC(C)OC(C)C1` (stereo not shown) belongs 9.85%; to `COc1cccc(NC(=O)NNC(=O)C(C)Oc2ccc3ccccc3c2)c1` (stereo not shown), 18.5%. The figure for `Cn1c(=O)c(C(=O)COC(=O)c2cc(-c3ccco3)nc3ccccc23)c(N)n(CC2CC2)c1=O` is 9.35%; for `Cc1ccc(C(C)NC(=O)C2CCCO2)cc1C` (stereo not shown) it is 20.4%; for `CCC(C)CCN1C(N(C)C)=NC[C@@H]1C` (stereo partly shown) it is 14.3%.

As for `CC(=O)c1c(-c2ccc(Cl)cc2Cl)noc1C`, the “hERG current change (%, negative = inhibition) at 1uM” value is reported as 12.3%. To `Cc1ccc(C)c(-c2cc(C(=O)Nc3cccc(C(=O)O)c3)c3ccccc3n2)c1` belongs 19.6%. The figure for `Cc1ccc(C2C3CN(C(C)C)CC=C3C(C#N)=C(N)C2(C#N)C#N)cc1` (stereo not shown) is 1.59%; for `COc1ccc(C2/C(=C(/O)c3ccc(Cl)cc3)C(=O)C(=O)N2CCN2CCOCC2)c(OC)c1` (stereo not shown) it is 10.2%; for `O=C(NCC1CCCO1)c1cc2ccccc2o1` (stereo not shown) it is 12.7%. With `Cc1nn(C)c(C)c1NC(=O)COc1ccc(Cl)cc1Br`, the “hERG current change (%, negative = inhibition) at 1uM” value is 2.33%. To `CCC(C(=O)N1CCN(c2ncccn2)CC1)c1ccccc1` (stereo not shown) belongs 7.59%. To `O=C(O)c1cnn2cc(-c3[nH]ncc3[N+](=O)[O-])cnc12` belongs 12.1%. The figure for `Cc1[nH]c2ccccc2c1-c1ccc(Cl)nn1` is 13.8%; for `CCCn1c(=N)c(S(=O)(=O)c2ccccc2)cc2c(=O)n3ccccc3nc21` it is 4.02%; for `O=C1NC(=O)/C(=C\c2ccsc2)N1` it is 12.8%. In the case of `CCCCc1c(C)nn(-c2nnc3c4ccccc4n(C)c3n2)c1C`, the “hERG current change (%, negative = inhibition) at 1uM” value is on record as 10.4%. To `CC(C)c1ccc(NC2(C#N)C(=O)Nc3ccccc32)cc1` (stereo not shown) belongs 0.263%; to `COc1cc(NC(=S)NCc2cccs2)cc(OC)c1`, 9.81%. For the molecule `CN(C)S(=O)(=O)c1ccc(C(=O)Oc2cc(=O)[nH]c3ccccc23)cc1`, the “hERG current change (%, negative = inhibition) at 1uM” value is given as 14.1%. To `CC(C)C1(CCNC(=O)c2cccs2)CCOC(C)(C)C1` (stereo not shown) belongs 13.3%; to `CCCCn1c(N)c(N(CC)C(=O)CCc2ccccc2)c(=O)[nH]c1=O`, 15.6%. To `O=C(/C=C/c1ccc2c(c1)OCO2)c1c(O)n(CCc2ccccc2)c(=O)[nH]c1=O` belongs 12.8%; to `CCOC(=O)c1c(NC(=O)C(C)Sc2c[nH]c3ccccc23)sc2c1CCC2` (stereo not shown), 20.3%.

Consider `Cc1cccc(OCC(=O)Nc2ccc(N3CCN(S(C)(=O)=O)CC3)cc2)c1`, for which the “hERG current change (%, negative = inhibition) at 1uM” value is reported as 7.33%. To `O=C(CSc1nnc2ccccn12)Nc1cccc(-c2nc3ccccc3s2)c1` belongs 10.8%; to `O=C(COc1ccc(C(=O)c2ccccc2)cc1)NC1CCCCC1`, 7.95%. To `CC(=O)Nc1ccc(S(=O)(=O)N(C)CC(=O)N(C)Cc2sccc2C)cc1` belongs 3.4%; to `Cc1cc(S(=O)(=O)n2ccnc2)c(Cl)cc1Cl`, 17.9%; to `Cc1sc2ccccc2c1CC1=NCCN1.O=C(O)C(=O)O`, -6.72%.

On to `CCN(CC1COc2ccccc2O1)C(=S)Nc1ccccc1` (stereo not shown), for which the “hERG current change (%, negative = inhibition) at 1uM” value is reported as -0.135%. With `Clc1cccc(CSc2nc3ccncc3[nH]2)c1`, the “hERG current change (%, negative = inhibition) at 1uM” value amounted to 8.25%. To `COC(=O)c1ccc(OCC(=O)N2CCCc3ccccc32)cc1` belongs 15%; to `CCOC(=O)c1ccc(Nc2nc(-c3cccnc3)nc3ccccc23)cc1`, 6.38%; to `COc1ccc(CCNc2nc(=O)[nH]nc2C)cc1OC`, 8.85%. As to `CCc1nnc(NC(=O)CCn2cnc3ccccc3c2=O)s1`, the “hERG current change (%, negative = inhibition) at 1uM” value is recorded as 2.54%. On to `O=C(NC1CCCC1)C(=O)c1c[nH]c2ccccc12`, for which the “hERG current change (%, negative = inhibition) at 1uM” value stood at 14.7%. In the case of `CCOC(=O)Cn1c(=O)c2c(nc(Br)n2Cc2ccccc2Cl)n(C)c1=O`, the “hERG current change (%, negative = inhibition) at 1uM” value worked out at 11.5%. To `N#CCN1CCN(CC(=O)Nc2cccc3ccccc23)CC1` belongs 15.7%.

Take `O=C(O)c1ccc(OCCN2CCCC2=O)cc1`: the “hERG current change (%, negative = inhibition) at 1uM” value is reported as 12.1%. Take `CNS(=O)(=O)c1ccc2c(c1)NC(=O)C1CCCN21` (stereo not shown): the “hERG current change (%, negative = inhibition) at 1uM” value was determined as 14.6%.

Take `C#CCOCCOCCOCCNc1nc(N2CCN(C(=O)CCCCCCCCCCNC(=O)[C@H](CO)n3cc(CCCSC)nn3)CC2)nc(N2CCN(C(=O)CCCCCCCCCCNC(=O)[C@H](CO)n3cc(CCCSC)nn3)CC2)n1`: the “hERG current change (%, negative = inhibition) at 1uM” value came to 10.2%. For `O=C(COC(=O)/C=C/c1cccc(Cl)c1)NC1CC1`, the “hERG current change (%, negative = inhibition) at 1uM” value amounted to 5.04%.
